In PMC4336329 (PLoS ONE, 2015):
About 2,200 (0.71%) of roughly 310,000 compounds showed an effect of 50% or more. The effect is printed as a negative number. The list shows a part of the results.

Each compound was assayed against human ether-à-go-go-related gene (hERG) potassium channel (human, UniProt Q12809) (assay: primary screen, population patch clamp on CHO cells stably expressing hERG).
Sequence of human ether-à-go-go-related gene (hERG) potassium channel (Q12809 whole entry, looked up): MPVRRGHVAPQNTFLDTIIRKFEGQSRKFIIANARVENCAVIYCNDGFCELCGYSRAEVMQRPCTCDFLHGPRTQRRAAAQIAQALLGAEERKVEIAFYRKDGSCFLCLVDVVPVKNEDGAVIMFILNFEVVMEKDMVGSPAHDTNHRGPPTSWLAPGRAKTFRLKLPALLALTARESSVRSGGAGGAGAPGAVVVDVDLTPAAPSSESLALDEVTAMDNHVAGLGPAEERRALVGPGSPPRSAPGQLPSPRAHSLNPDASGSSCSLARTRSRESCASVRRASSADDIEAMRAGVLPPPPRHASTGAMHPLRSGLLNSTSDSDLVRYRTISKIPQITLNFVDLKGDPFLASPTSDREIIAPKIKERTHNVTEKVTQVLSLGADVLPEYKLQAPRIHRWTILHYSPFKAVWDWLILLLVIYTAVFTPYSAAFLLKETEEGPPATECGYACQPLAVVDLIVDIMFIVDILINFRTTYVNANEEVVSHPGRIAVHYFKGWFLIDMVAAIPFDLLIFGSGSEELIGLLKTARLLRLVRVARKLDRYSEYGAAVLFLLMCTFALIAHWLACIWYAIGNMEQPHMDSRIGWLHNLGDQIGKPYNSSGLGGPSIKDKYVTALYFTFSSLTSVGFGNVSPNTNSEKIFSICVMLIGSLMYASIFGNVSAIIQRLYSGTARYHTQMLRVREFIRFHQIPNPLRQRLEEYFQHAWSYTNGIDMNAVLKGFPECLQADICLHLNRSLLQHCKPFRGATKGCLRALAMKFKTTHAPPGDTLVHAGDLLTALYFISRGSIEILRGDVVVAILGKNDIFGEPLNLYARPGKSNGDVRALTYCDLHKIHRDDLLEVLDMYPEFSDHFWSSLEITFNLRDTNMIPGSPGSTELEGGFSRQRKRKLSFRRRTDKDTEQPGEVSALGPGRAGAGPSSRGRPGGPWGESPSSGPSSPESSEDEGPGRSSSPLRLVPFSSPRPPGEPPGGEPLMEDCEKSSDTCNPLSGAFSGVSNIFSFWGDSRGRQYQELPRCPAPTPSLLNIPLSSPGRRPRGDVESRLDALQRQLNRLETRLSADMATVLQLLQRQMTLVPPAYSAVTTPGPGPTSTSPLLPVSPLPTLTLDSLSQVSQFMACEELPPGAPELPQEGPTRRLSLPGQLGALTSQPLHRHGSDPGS

Row | Structure (SMILES) | hERG current change (%, negative = inhibition) at 1uM [%]
1 | CC1=C(C(=O)NCc2ccccc2)C(c2ccccc2OCC(N)=O)NC(=O)N1 (stereo not shown) | 1.35
2 | CC(C)C(c1nnnn1Cc1ccc2c(c1)OCO2)N1CCN(c2ccccc2)CC1 (stereo not shown) | 19.2
3 | CCO[C@@H]1OC(C(=O)O)=C[C@H](C2CCCCC2)[C@H]1CCCO | 10.6
4 | O=C(COc1ccc(Cl)c2cccnc12)N1CCOCC1 | 11.2
5 | Cc1cc(C(=O)Nc2ccc(Cl)cc2)c(C)n1Cc1cccs1 | 10.2
6 | O=C(COC(=O)CN1C(=O)c2ccccc2C1=O)Nc1ncc(Cl)cc1Cl | 3.24
7 | CCOC(=O)c1c(C)[nH]c(C(=O)OCC(=O)N2CC(C)OC(C)C2)c1C (stereo not shown) | 17.4
8 | Cc1onc(-c2c(F)cccc2Cl)c1C(=O)Nc1ccccc1N1CCOCC1 | 14.8
9 | COc1cccc(C(=O)NC(=S)Nc2ccc([N+](=O)[O-])cc2C)c1 | 5.88
10 | Cc1cc(OCc2cc(C(=O)N(C)CCOc3ccccc3)no2)cc(C)c1Cl | 6.19
11 | Cc1c2ccccc2nc2c(F)c(NCCO)c(F)c(F)c12 | 13.9
12 | COc1cc(C#N)ccc1OCC(=O)Nc1cccc(S(=O)(=O)N2CCCC2)c1 | 7.57
13 | COc1ccc(-c2nnc(SCC(=O)Nc3ncc(C(F)(F)F)cc3Cl)n2CC(C)C)cc1 | -8.9
14 | Cc1ccc(S(=O)(=O)N2[C@@H](c3ccccc3)C(C(=O)O)=CC[C@H]2c2ccc(Cl)c(Cl)c2)cc1 | 17.7
15 | Cc1ccc(CNC(=O)CN(C(=O)C2(C)CC(=O)N=C3C=CC=CN32)c2cccc(C)c2C)cc1 (stereo not shown) | 12.6
16 | Cc1ccc(C2=NN(CC(=O)NCc3ccccn3)C(=O)CC2)cc1 | 0.28
17 | CC1CN(C(=O)Cn2cc(S(=O)(=O)CC(=O)N3CCOCC3)c3ccccc32)CC(C)O1 (stereo not shown) | 12.9
18 | Cc1ccc(CCNC(=O)C2CCCN(S(=O)(=O)c3cccc4nsnc34)C2)cc1 (stereo not shown) | 12.6
19 | S=C(c1ccccc1)N1CCCc2ccccc21 | 3.14
20 | COc1cc(NS(=O)(=O)c2ccc(N/C=C(\C#N)c3nc4ccccc4o3)cc2)nc(OC)n1 | 0.344
21 | CC(=O)Nc1ccc(Nc2nnc(-c3ccc(C)c(S(N)(=O)=O)c3)c3ccccc23)cc1 | 12.8
22 | COc1ccc(CS(=O)(=O)c2nc(C)cc(C)c2S(C)(=O)=O)cc1 | 6.6

Row | Structure (SMILES) | hERG current change (%, negative = inhibition) at 1uM [%]
23 | Cc1ccc(C)c(CSc2nnc(C)c(=O)[nH]2)c1 | 14.8
24 | CCOC(=O)c1c(C)oc(C)c(C(=O)OCC)c1=O | 17.1
25 | Cc1ccc2nc(C)c3c(c2c1)SCC3 | 1.85
26 | Cc1ccc(NC(=O)CSc2ccccc2)cc1S(=O)(=O)N1CCCCC1 | 9.21
27 | CN(C(=O)c1ccc2c(=O)n3c(nc2c1)CCCCC3)c1ccccc1Cl | -0.15
28 | Cc1cc(=O)[nH]c(SCC(=O)Nc2ccc(F)cc2)c1C#N | 12.5
29 | CN1CCN(C(=O)COc2ccc(S(=O)(=O)Nc3ccc(F)cc3)cc2)CC1 | 12.6
30 | Cc1ccc(NC(=O)CCCn2c(=S)[nH]c3ccsc3c2=O)cc1C | 18.7
31 | CCN(CC)CCN1C(=O)C(O)=C(C(=O)c2cc3ccccc3o2)C1c1cccnc1 (stereo not shown) | 5.98
32 | CN(Cc1ccccc1)S(=O)(=O)CCNC(=O)c1ccc2c(c1)OCO2 | 18.6
33 | O=C(/C=C/c1ccc(F)cc1)NC(=S)Nc1ccccc1O | 13.6
34 | Oc1c(Cl)cc(Cl)cc1CNc1nccs1 | 12.3
35 | OCCC1CN(CC2CC2)CCN1Cc1ccc(F)c(F)c1 (stereo not shown) | 9.99
36 | Cl.O=C(OCCN1CCOCC1)c1cccs1 | 10.2
37 | CN(C)c1cccc2c1c(NC(=O)c1ccc(Cl)cc1)nn2C | 14.9
38 | c1ccc(CN2CCC(Nc3ncnc4sccc34)CC2)cc1 | -31.2
39 | CSc1cccc(NC(=S)N(CCN(C)C)C(C)c2ccccn2)c1 (stereo not shown) | -0.249
40 | O=C(NCCCN1CCOCC1)C(Cl)(Cl)Cl | 16.6
41 | COc1ccc(-c2cc3nc(C4CCN(C(=O)OC(C)(C)C)CC4)c(C(=O)O)cn3n2)cc1 | -12.2
42 | COc1ccc(N=Nc2cc(-c3ccccc3)ccc2O)cc1 | 3.31
43 | COc1cccc2sc3ccc(NCc4ccc5c(c4)OCO5)cc3c(=O)c12 | 14.1
